Experimental findings from patent publication US12599649B2, “Bioactive polypeptides for improvements in plant protection, growth and productivity” (priority 2017, dated 2026) are described below.

Holding throughout (format): in vivo
In one assay the test system is squash. Kind of assay: Foliar Bt.4Q7Flg22 or Gm.RHPP on Crookneck squash, yield (Example 42). An excerpt:
Yield comparisons were made between the plants treated with the polypeptides compared to surfactant only control plants, with three replicates per treatment. […] Replicates with average yield per plant 50% above or 50% below the median yield for the trial were excluded as outliers.
Squash plants were cultivated in sandy loam soil as follows. 2.5 cm holes were cut in 0.76 meters wide plastic covered mounds, two rows per mound, holes spaced 0.46 meters apart within each row. Rows were staggered within the mound. Mounds were spaced 1.2 meters apart. Three squash seeds were planted per hole and thinned to a single plant per hole 14 days after planting. Drip irrigation tubing was laid in the center of each mound, and plants were watered as necessary.

The next assay deals with Phakopsora pachyrhizi. Kind of assay: Asian soybean rust severity on soybean, Paraguay field trials (Example 53). Conditions: 150 and 300 mL/Ha, two foliar applications from R1.
The subject of assay [1] is corn. Kind of assay: Foliar Gm.RHPP on V5 corn, yield (Example 39). As to the method:
In total, the trial was conducted at 6 locations in the US Midwest (IL, IN, IA), with 1-2 hybrids per location and 3 replicated plots per hybrid. […] The average change in Bu/Ac was compared to the yield of plants grown from the surfactant control and reported as the combined average yield (Bu/Ac) for the 6 locations (11 replicated plots in total) and as overall change in Bu/Ac as compared to control plants.

Another assay deals with tomato. Kind of assay: Foliar Bt.4Q7Flg22 and Gm.RHPP on Roma tomato, fruit weight (Example 41). As to the method: Small scale plots were designed to simulate commercial growing conditions for tomatoes. Tomato plants, variety Roma were started from transplants that were grown in a greenhouse for 45 days prior to planting into 2 raised field row beds with 2 feet (0.6 meters) between each transplant with an average of 30 plants per row bed. […] Tomatoes were grown on raised beds covered with black plastic mulch. Plants were grown using drip irrigation and fertilizer (80 lbs. or 36.3 kg) nitrogen; 100 lbs. (45.4 kg) phosphate, and 100 lbs. (45.4 kg) potash or potassium) applied following grower guidelines throughout the growing season to provide for optimum plant growth and yields. Small raised bed plots were designed to simulate the planting densities used by commercial growers that generally plant 2,600 to 5,800 plants per acre in single rows with 45.7 to 76.2 cm between plants in the row on 1.5- to 2-meter centers. [Orzolek et al., “Agricultural Alternatives: Tomato Production.” University Park: Penn State Extension, 2016].
Foliar treatments using Bt.4Q7Flg22 and Gm.RHPP were applied on the tomato plants directly at early bloom (first flower) stage. […] Plants were treated in replicates of 6 plants, with three replicates per treatment. Effect of the foliar treatments on the yield obtained from tomatoes was determined and reported as normalized to no spray control treatment. The average fruit weight per tomato plant is reported as the combined average for 2 separate harvests and the average percentage change in fruit weight as compared to the no-spray control in Table 61.

Assay [2] deals with corn. Briefly: RHPP on V5-V8 corn, leaf architecture (Example 22). An excerpt: Retro inverso RHPP may be modified with C-terminal amidation prior to application. […] The increase in leaf angle has impactful advantages for use in agriculture in this area. This is particularly relevant with higher planting densities used to maximize yield in a field environment. Foliar applications of the RHPP polypeptide in maize (corn) is useful for changing the leaf angle thus contributing to a smaller leaf angle which results in an upright leaf orientation. This phenotype can be beneficial for increasing the leaf area index, reducing maize shade syndrome, and improving photosynthetic efficiency. In addition, providing RHPP as a foliar formulation to maximize canopy development and total light penetrance is key to increasing vegetative growth of the plants prior to the initiation of the grain filling stage.

In assay [3] the test system is soybean. Briefly: Bt.4Q7Flg22 or Ec.Flg22 with RHPP on soybean, yield (Example 28). An excerpt:
The bioactive priming polypeptides, Bt.4Q7Flg22 and Ec.Flg22, were combined with RHPP and accessed for yield benefits in soybean.
Average yield (harvested in September) in bushels per acre (Bu/Ac) is reported for soybean grown in 7 separate locations and reported individually for both soybean varieties and as a combined average yield (Table 45).

For assay [4], the system named is soybean. Kind of assay: Foliar RHPP on R1 soybean, plant height (Example 23). Conditions: 300 nM + 0.1% ALLIGARE SURFACE. As to the method:
RHPP bioactive priming polypeptide (SEQ ID NO: 600) was also applied as foliar treatment to R1 stage hybrid soybean (Beck's 297R4) with 0.1% (v/v) non-ionic surfactant ([…] SURFACE) using a spray bottle delivering approximately 1.2 ml/plant. This experiment was performed to look at the effects of RHPP on plant growth and was conducted using a total of 18 plants per treatment group. […] R1 stage soybean plants were treated with nothing (non-treated control), […] SURFACE surfactant applied at a concentration of 0.1% (v/v) or the RHPP polypeptide (300 nM) applied in combination with […] SURFACE surfactant (0.1% v/v). Height for each plant was recorded at the time of spray and again at 16 days post foliar application and average growth parameters were compared between foliar treatments (Table 39).

For assay [5], the system named is soybean. Kind of assay: Foliar Gm.RHPP on R1 soybean, pod number (Example 40). Conditions: 300 nM, 31 days after first foliar treatment. The procedure: Plants were then placed under a long day conditions consisting of 16/8 light/day cycle and temperature 21-26° C. to promote early flowering and speed up progression to the reproductive (R) growth stage. When the soybean plants had reached the R1 stage of development a foliar application containing the Gm.RHPP (SEQ ID NO: 600) polypeptide at a final concentration of 300 nM and a non-ionic surfactant of 0.10% (NIS90:10; Precision Laboratories, LLC) was applied to soybean. Soybean plants were provided with the Gm.RHPP formulation and a non-ionic surfactant only control. Both the Gm.RHPP and the non-ionic surfactant control treatment were applied to 18 plants per treatment. Six equidistant sprays were provided approximatey 15 cm above per each plant for complete coverage of foliage. After treatment application, the R1 soybean plants were returned to the control environmental growth room. […] Soybean pods of more than 1 mm in length were counted on the plants after 31 days from the first foliar spray treatment applications. […] A p value (p<0.05 for significance) was calculated from a paired T-test comparison between pod number from plants that received the Gm.RHPP and the non-ionic surfactant control treatment applications.

The mark [6] stands for this setting: Bt.4Q7Flg22 2.0 Fl. oz/Ac or Gm.RHPP 3.2 Fl. oz/Ac.
Setting [7] is: 8.0 Fl. oz/Ac, 6 locations combined.
The mark [8] stands for this setting: both soybean varieties, use rate 0.33 Fl. oz/Ac.

On to “RHPP: root hair promoting polypeptide derived from Glycine max (GGIRAAPTGNER; Glycine max)”, for which, in the assay on squash (setting [6]), the “change in fruit weight vs surfactant only control” value was 4.4% and the “increase in weight of harvested squash fruit” value worked out at 31.7 grams per plant. Also, in the assay on squash (Crookneck squash, foliar at first bloom, two harvests, Bt.4Q7Flg22 2 fl oz/Ac, Gm.RHPP 3.2 fl oz/Ac), the “Average squash fruit weight (grams) per plant” value worked out at 748.4 grams. Further, the “less Asian soybean rust leaf area damage compared to untreated control” value with Phakopsora pachyrhizi was 10.5-11.3%. Besides, in the assay with corn [1] (setting [7]), the average yield result is recorded as “more than 209 Bu/Ac” and the “yield increase vs surfactant control” value was 3.52 Bu/Ac. Also, the “Average Yield Bu/Ac” value with corn [1] (V5 corn, foliar 100 μM at 8.0 Fl. oz/Ac, 6 locations) was found to be 209.67 Bu/Ac. In the assay with corn [1] (V5 corn, foliar 100 μM at 8.0 Fl. oz/Ac, vs surfactant only control), this substance yielded a win rate of 64%. Besides, the “change in fruit weight per plant vs no spray control” value in the assay on tomato (Bt.4Q7Flg22 16.7 μM at 4.0 Fl. oz/Ac, Gm.RHPP 100 μM at 3.2 Fl. oz/Ac) is roughly 2%. Moreover, the “Average Fruit Weight (grams) per Plant” value in the assay on tomato (Roma tomato, foliar at early bloom, 2 harvests, Bt.4Q7Flg22 4.0 Fl. oz/Ac, Gm.RHPP 3.2 Fl. oz/Ac) was 1397.1 grams. Further, in the assay with tomato (Roma tomato, foliar at early bloom, Bt.4Q7Flg22 4.0 Fl. oz/Ac, Gm.RHPP 3.2 Fl. oz/Ac), the “Percentage Change in Fruit Weight Compared to No-Spray Control” value is on record as “+1.99%”. Further, in the assay on corn [2], the leaf architecture phenotype result is “distinct leaf architecture phenotype with an upright leaf orientation and more erect leaves”. In the assay with soybean [3] (setting [8]), the “Average Bu/Ac Increase compared to Control Variety 1 and 2” value is reported as “+0.35 Bu/Ac”; the “Average Total Yield Bu/Ac Variety 1 and 2” value was determined as 60.92 Bu/Ac. Besides, in the assay with soybean [3] (foliar 4.0 Fl. oz/Ac, R2, 7 locations), the “yield increase over control plants” value was determined as 1.26 Bu/Ac. The “Average Total Yield Bu/Ac Variety 1” value with soybean [3] (soybean variety 1 (AG2836), foliar at R2, 7 locations, use rate 0.33 Fl. oz/Ac) is given as 59.15 Bu/Ac. For the same substance, in the assay with soybean [3] (soybean variety 2 (AG3536), foliar at R2, 7 locations, use rate 0.33 Fl. oz/Ac), the “Average Total Yield Bu/Ac Variety 2” value is listed as 62.44 Bu/Ac. For the same substance, in the assay on soybean [4] (16 days post application), the “plant growth (plant height) vs surfactant alone and non-treated control” value is reported as “increased plant growth”. The “Height (cm)” value in the assay with soybean [4] (soybean Beck's 297R4, R1 stage) stood at 19.9 cm. Besides, the “Change in height (cm)” value in the assay with soybean [4] (soybean Beck's 297R4, R1 stage, 16 days post foliar application) came to 4.6 cm. Moreover, the “pod count vs non-ionic surfactant control” value in the assay on soybean [5] was “approximately doubled pod count”.
